{
  "source": "paper PMC4336329",
  "about": "(PLoS ONE, 2015)",
  "note": "In all, about 310,000 compounds went through this assay and about 2,200 (0.71%) showed an effect of 50% or more. Effects have a minus sign here. Some of the results follow.",
  "data": [
    {"molecular_target": "human ether-à-go-go-related gene (hERG) potassium channel (human, UniProt Q12809)", "sequence (Q12809 whole entry, looked up)": "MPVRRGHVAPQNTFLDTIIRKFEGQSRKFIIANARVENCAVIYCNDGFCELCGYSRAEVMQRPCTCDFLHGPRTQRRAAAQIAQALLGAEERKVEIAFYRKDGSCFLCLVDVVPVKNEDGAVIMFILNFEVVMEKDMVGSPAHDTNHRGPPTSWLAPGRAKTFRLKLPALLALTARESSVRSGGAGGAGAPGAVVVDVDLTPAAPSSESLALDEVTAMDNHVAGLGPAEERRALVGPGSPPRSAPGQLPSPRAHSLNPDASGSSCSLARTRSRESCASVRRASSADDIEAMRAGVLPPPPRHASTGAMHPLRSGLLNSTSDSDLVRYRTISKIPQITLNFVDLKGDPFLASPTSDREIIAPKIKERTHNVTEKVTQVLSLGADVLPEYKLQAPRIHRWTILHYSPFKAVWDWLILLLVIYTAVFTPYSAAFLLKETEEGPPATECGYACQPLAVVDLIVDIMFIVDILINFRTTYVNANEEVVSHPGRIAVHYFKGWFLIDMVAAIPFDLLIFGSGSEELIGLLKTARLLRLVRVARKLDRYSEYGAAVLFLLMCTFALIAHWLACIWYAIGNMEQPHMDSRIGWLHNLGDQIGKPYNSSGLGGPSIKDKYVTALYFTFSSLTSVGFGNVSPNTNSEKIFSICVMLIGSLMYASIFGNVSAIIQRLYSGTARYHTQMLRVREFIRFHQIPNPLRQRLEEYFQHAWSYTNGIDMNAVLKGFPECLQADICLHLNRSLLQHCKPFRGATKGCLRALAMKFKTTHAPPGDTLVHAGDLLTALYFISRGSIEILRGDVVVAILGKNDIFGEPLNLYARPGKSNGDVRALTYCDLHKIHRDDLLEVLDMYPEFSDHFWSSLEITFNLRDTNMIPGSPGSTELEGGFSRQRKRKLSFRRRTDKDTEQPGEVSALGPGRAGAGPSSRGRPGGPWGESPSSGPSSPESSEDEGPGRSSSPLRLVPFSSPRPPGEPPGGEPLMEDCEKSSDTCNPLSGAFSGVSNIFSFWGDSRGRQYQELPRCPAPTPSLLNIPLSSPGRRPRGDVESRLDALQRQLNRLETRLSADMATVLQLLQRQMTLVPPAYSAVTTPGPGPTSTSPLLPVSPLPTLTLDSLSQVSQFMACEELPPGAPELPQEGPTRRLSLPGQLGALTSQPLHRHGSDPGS", "assay": "primary screen, population patch clamp on CHO cells stably expressing hERG", "units": {"hERG current change (%, negative = inhibition) at 1uM": "%"}, "values": [
      {"smiles": "O=C1CN(C(=O)/C=C/c2ccc(Br)cc2)CCN1", "hERG current change (%, negative = inhibition) at 1uM": 9.57},
      {"smiles": "C/C(=N\\NC(=O)c1ccc(-c2ccccc2)cc1)c1cccc(N)c1", "hERG current change (%, negative = inhibition) at 1uM": 1.25},
      {"smiles": "CC(C(=O)OCC(=O)c1ccccc1)N1C(=O)C2C3CCC(C3)C2C1=O", "note": "(stereo not shown)", "hERG current change (%, negative = inhibition) at 1uM": 11.4},
      {"smiles": "COc1ccc(Br)cc1/C=N/Nc1cccc(C(=O)O)c1", "hERG current change (%, negative = inhibition) at 1uM": 8.54},
      {"smiles": "O=C(C(Cl)c1ccccc1)N1CCCC1", "note": "(stereo not shown)", "hERG current change (%, negative = inhibition) at 1uM": 20.1},
      {"smiles": "CC(=O)Nc1c2c(nn1-c1ccc(Cl)cc1)CSC2", "hERG current change (%, negative = inhibition) at 1uM": 13.7},
      {"smiles": "CN(C)S(=O)(=O)c1ccc(Cl)c(NC(=O)CN2CCCC2)c1", "hERG current change (%, negative = inhibition) at 1uM": 14},
      {"smiles": "CCOC(=O)C(C)c1nc2ccccc2[nH]c1=O", "note": "(stereo not shown)", "hERG current change (%, negative = inhibition) at 1uM": 15.1},
      {"smiles": "CCOC(=O)C1CCCN(CCC(C)c2ccccc2)C1", "note": "(stereo not shown)", "hERG current change (%, negative = inhibition) at 1uM": -9.48},
      {"smiles": "O=C1C=C(Nc2cccc3cccnc23)c2ccccc2C1=O", "hERG current change (%, negative = inhibition) at 1uM": 8.72},
      {"smiles": "N#Cc1nnn(-c2cc(Cl)cc(Cl)c2)c1N", "hERG current change (%, negative = inhibition) at 1uM": 0.583},
      {"smiles": "CNC(=S)N1CCC(NC(=O)C(Cc2ccc(F)cc2)NC(C)=O)CC1", "note": "(stereo not shown)", "hERG current change (%, negative = inhibition) at 1uM": 18.6},
      {"smiles": "Cc1oc2c(CN3CCCCC3C)c(O)ccc2c(=O)c1-c1ccccc1", "note": "(stereo not shown)", "hERG current change (%, negative = inhibition) at 1uM": -7.78},
      {"smiles": "COc1ccc(C/C(N)=N/OC(=O)c2cccs2)cc1", "hERG current change (%, negative = inhibition) at 1uM": -7.72},
      {"smiles": "O=C(CSc1nc2ccccc2[nH]1)Nc1c(F)cccc1F", "hERG current change (%, negative = inhibition) at 1uM": 15.8},
      {"smiles": "CCOC(=O)C(CC(=O)O)N1CCCCC1", "note": "(stereo not shown)", "hERG current change (%, negative = inhibition) at 1uM": 7.18},
      {"smiles": "Cc1cc2occ(CC(=O)N(CC(C)C)c3c(N)n(Cc4ccccc4)c(=O)[nH]c3=O)c2cc1C", "hERG current change (%, negative = inhibition) at 1uM": 9.2},
      {"smiles": "CCOc1ccccc1NC(=O)C1CCCCN1S(=O)(=O)c1ccc(F)cc1", "note": "(stereo not shown)", "hERG current change (%, negative = inhibition) at 1uM": 10.7},
      {"smiles": "CCSC(=O)N1CCCCCC1", "hERG current change (%, negative = inhibition) at 1uM": 11.5},
      {"smiles": "COc1ccc(OCC(O)CNC(=O)c2ccccc2C(=O)O)cc1", "note": "(stereo not shown)", "hERG current change (%, negative = inhibition) at 1uM": 2.88},
      {"smiles": "O=C(c1cc(Cl)ccc1[N+](=O)[O-])N1CCc2ccccc2C1", "hERG current change (%, negative = inhibition) at 1uM": 14.7},
      {"smiles": "O=C(COC(=O)c1cc(Cl)ccc1O)c1ccc2c(c1)OCO2", "hERG current change (%, negative = inhibition) at 1uM": -7.02},
      {"smiles": "COc1ccc(C)cc1Nc1n[n+](-c2ccccc2)c(-c2ccc(C(=O)O)cc2)s1.[Cl-]", "hERG current change (%, negative = inhibition) at 1uM": 16.6},
      {"smiles": "COc1ccc(CN(C)C(=S)Nc2ccc(Cl)cc2Cl)cc1", "hERG current change (%, negative = inhibition) at 1uM": 22.7},
      {"smiles": "CCC(C)CCN1CCN=C1Nc1ccccc1", "note": "(stereo not shown)", "hERG current change (%, negative = inhibition) at 1uM": 13.8},
      {"smiles": "COc1cccc(N2CCN(c3ncnc4c3cnn4-c3ccc(C)cc3C)CC2)c1", "hERG current change (%, negative = inhibition) at 1uM": 6.64},
      {"smiles": "CCCC(C)c1nnc(NC(=O)CCS(=O)(=O)c2ccccc2)s1", "note": "(stereo not shown)", "hERG current change (%, negative = inhibition) at 1uM": 16.5},
      {"smiles": "O=C1NCCN1Cc1cccc(Cl)c1", "hERG current change (%, negative = inhibition) at 1uM": 2.54},
      {"smiles": "COc1cc([C@@H]2CC=C(C(=O)O)[C@H](c3ccccc3F)N2S(=O)(=O)c2ccc(C)cc2)cc(OC)c1OC", "hERG current change (%, negative = inhibition) at 1uM": 16.7},
      {"smiles": "C/C(=N\\NC(=O)CN1CCN(S(=O)(=O)c2ccc(C)cc2)CC1)c1cccnc1", "hERG current change (%, negative = inhibition) at 1uM": -7.5},
      {"smiles": "CNCCCc1ccccc1.Cl", "hERG current change (%, negative = inhibition) at 1uM": -11},
      {"smiles": "CCCCCNCc1ccc(OCc2ccc(Cl)nc2)c(OC)c1", "hERG current change (%, negative = inhibition) at 1uM": -7.27},
      {"smiles": "Br.O=C(Cn1c(NCCO)nc2ccccc21)c1cccs1", "hERG current change (%, negative = inhibition) at 1uM": 14.1},
      {"smiles": "CCn1cc(CN2CCN(CCC(C)C)C(CCO)C2)c2ccccc21", "note": "(stereo not shown)", "hERG current change (%, negative = inhibition) at 1uM": 6.41},
      {"smiles": "O=c1[nH]c2ccccc2nc1/C=C(\\O)C1CC1", "hERG current change (%, negative = inhibition) at 1uM": 12.8},
      {"smiles": "C/C(=N/N=C(/C)c1cccs1)c1cccs1", "hERG current change (%, negative = inhibition) at 1uM": 16.4},
      {"smiles": "CC(=O)c1c(O)ccc2c(-c3ccccc3)cc(=O)oc12", "hERG current change (%, negative = inhibition) at 1uM": -4.62},
      {"smiles": "OCCN(Cc1ccccc1)c1ncnc2sccc12", "hERG current change (%, negative = inhibition) at 1uM": 12.2},
      {"smiles": "COc1cc(Br)c(CNCCc2ccc3c(c2)OCO3)cc1OC", "hERG current change (%, negative = inhibition) at 1uM": 0.0424},
      {"smiles": "CCN(CC)CCNC(=O)C1(O)c2cc(Br)ccc2NC(=O)N1c1ccc(Cl)cc1", "note": "(stereo not shown)", "hERG current change (%, negative = inhibition) at 1uM": 14.3},
      {"smiles": "NS(=O)(=O)c1ccc(NC(=O)CCc2ccccc2)cc1", "hERG current change (%, negative = inhibition) at 1uM": 0.661},
      {"smiles": "COc1ccc(S(=O)(=O)Nc2ccc(O)c(Sc3ncn[nH]3)c2)cc1", "hERG current change (%, negative = inhibition) at 1uM": 7.48},
      {"smiles": "Cn1c(=O)n(C)c2cc(NS(=O)(=O)c3cccs3)ccc21", "hERG current change (%, negative = inhibition) at 1uM": 11.6},
      {"smiles": "Br.CC1(C)N=C(N)NC(Nc2ccc(Br)cc2)=N1", "hERG current change (%, negative = inhibition) at 1uM": 7.7},
      {"smiles": "O=C1CC(=O)N(c2ccccc2)c2ccccc21", "hERG current change (%, negative = inhibition) at 1uM": 12.8},
      {"smiles": "CN(C)CCCN(C(=O)c1cc2ccccc2oc1=O)c1nc2c(F)cccc2s1.Cl", "hERG current change (%, negative = inhibition) at 1uM": -2.2}
    ]}
  ]
}
